Consider 167 variants from the RNAGym collection of RNA variant scans (doi:10.7554/elife.90254).

Read counts are not given, so values of variants with three or more changes are uncertain.

The labels stand for the following.
B1: LINE1-full (parent)
chain: UACGUAGGUGGUUUUCCCCUGAUAGUGCUAAGGGGGCCUGGAAGUUUGGACUGGGCAGAGCUCAACACAGCGUGGCAAAGUGGCUGUGGCUAGACUGCCUCUCUGGAUUCCUCGUCACUCAGCAGGGCAUCUCUGAGAGAAAUGCC

The variants in the data set derive from B1. Briefly: self-cleavage, relative activity (ratio to wild type); higher = more cleavage; in vitro, sequencing; the parent is a self-cleaving ribozyme.
Consider A43G A57U C71G A136U, for which the self-cleavage came out at 0.09.

Regarding U9C U14C A141G, the self-cleavage was 0.24.

In the case of U13C A107G A117U, the self-cleavage turned out to be 1.46.

For A77U C118U U132C, the self-cleavage amounted to 1.11.

Take C19U U26C A43U A69U: the self-cleavage was found to be 0.06.

In the case of U39G A50G A69U U73G U112C, the self-cleavage was found to be 0.

Turning to A30G U52C A59U, the self-cleavage stood at 0.54.

For the variant U14C G21U U130C, the self-cleavage was 1.16.

Consider G4A U12C A24G U108C A129U, for which the self-cleavage was found to be 0.

Take U13A C17U U26C A42G A43G U100C A140G: the self-cleavage came out at 0.

Turning to U12C U52A A77G C84A, the self-cleavage turned out to be 0.49.

Take G35A A67G U85A A107G: the self-cleavage amounted to 0.05.

U26G A77G A124G A141G: the self-cleavage worked out at 0.92.

Take U23C A24U U45C A142G: the self-cleavage turned out to be 1.43.

For U62C G93A U115C, the self-cleavage was determined as 0.02.

U20C U45A A77U U132C: the self-cleavage was 2.03.

On to U20A A64U U115C A124G, for which the self-cleavage is 0.32.

Take A57G A78G U134C: the self-cleavage came out at 0.59.

As for U5C U62C G80U A94G, the self-cleavage turned out to be 0.27.

Consider A2C A77U U100C G144A, for which the self-cleavage was found to be 1.77.

On to U5C U13C A78G, for which the self-cleavage is 1.79.

Take A22G U73A G93A U102C: the self-cleavage was 0.07.

For the variant U52C A59U C76U G82A U87C U143C, the self-cleavage came out at 0.35.

On to U14C G54A U96G A140G U143C, for which the self-cleavage was determined as 0.

As to A57G U134G A141G, the self-cleavage was determined as 1.84.

Take U14C A22G A59U U81C: the self-cleavage came to 0.89.

Take C51U A67G U132A A136U G137A A138U: the self-cleavage came to 0.89.

Consider A22G A77G U91C, for which the self-cleavage came out at 0.

With G4C A64G A79U, the self-cleavage amounted to 0.46.

On to U1C G40A A129U A140G, for which the self-cleavage came to 0.61.

As for A22G U73A U109C, the self-cleavage is 1.8.

For the variant U104C G114A A138G, the self-cleavage was 2.07.

On to G35A A67U U115C, for which the self-cleavage came to 0.08.

Regarding A42G A67U A107G, the self-cleavage came out at 0.

U1A U108C A138U: the self-cleavage worked out at 2.57.

Turning to C56U A69G A136G A141G, the self-cleavage came out at 0.

Consider U73A A117G A140G, for which the self-cleavage worked out at 0.88.

On to U20C U81C A142G, for which the self-cleavage is 1.11.

In the case of U62C G89U A136G, the self-cleavage is 0.04.

As to G8U U96C U119A, the self-cleavage was found to be 0.3.

Take G55A U85C A121G: the self-cleavage was 0.04.

Take U14A A64U A67G: the self-cleavage amounted to 0.08.

With A22U G25A A69G U134C, the self-cleavage turned out to be 0.

With U15C A107G U112C, the self-cleavage was 1.82.

As for G70C A92G U102C A129U, the self-cleavage was found to be 0.08.

Consider U26C A69G U109C, for which the self-cleavage was 0.

As to A22G G72A U85C, the self-cleavage is 0.

Regarding A78G U85C U109C U119A, the self-cleavage was 0.

In the case of U87C A117G A140G, the self-cleavage turned out to be 0.08.

With A67G G86A U100C, the self-cleavage was determined as 0.03.

Regarding U20G G34U A64U, the self-cleavage was 0.43.

As for U9C A43G U45C, the self-cleavage is 2.42.

With U1C U62C A79G A140G, the self-cleavage came out at 0.07.

Take U45C G93A U132C: the self-cleavage turned out to be 0.07.

Turning to U45C A59G U119C, the self-cleavage amounted to 0.17.

Take U47C U112C A142G: the self-cleavage was found to be 1.2.

Turning to U13C U52A A78G A92G, the self-cleavage turned out to be 0.18.

Turning to C3A A77C U130A, the self-cleavage amounted to 0.34.

On to A64G A65U A117G, for which the self-cleavage was 0.2.

Regarding U12C A57C G83A A117U A142G, the self-cleavage was determined as 0.19.

Regarding U5A U73A U96C A141G, the self-cleavage was 0.07.

Regarding U1C A6U A22U A24U U52C U96C, the self-cleavage stood at 0.

As for U29C G83A A140G, the self-cleavage is 0.94.

With A42G U62C A78U U104A A121U, the self-cleavage is 0.04.

U62C U73C G127A: the self-cleavage was found to be 0.03.

Turning to U26C A64G A129U, the self-cleavage is 0.36.

In the case of U12G C56U U62C A65G A77G A129G, the self-cleavage was found to be 0.44.

Regarding U108C C128A U143A, the self-cleavage was found to be 1.92.

U39A U45G G53A U104C G114A: the self-cleavage was determined as 1.59.

Take U14C U100A U115A: the self-cleavage is 0.89.

On to A2G U26A G34C, for which the self-cleavage turned out to be 0.78.

U12C U87C C146U: the self-cleavage was 0.65.

Turning to U26A U104A U109C, the self-cleavage is 0.45.

As for G32A U62C U100C U109C, the self-cleavage was found to be 0.04.

Regarding U1C U119C G144A, the self-cleavage was found to be 1.13.

With A6G U62C G86A U119A, the self-cleavage turned out to be 0.1.

Turning to U85C U108C A124G, the self-cleavage came to 0.

With A78U A94U A107G A129G, the self-cleavage came out at 0.37.

For the variant U52A A65G G74A U102C, the self-cleavage was found to be 0.02.

In the case of U14C G60A U96A, the self-cleavage came to 0.02.

Take U12A G32A U132C A136U: the self-cleavage was determined as 1.14.

For U23A A64U A140G, the self-cleavage is 0.49.

For the variant U9A U91G U96C, the self-cleavage came out at 0.

In the case of U14C U23C U73C, the self-cleavage turned out to be 1.72.

A24U C37G U85C A129G: the self-cleavage is 0.36.

For the variant C56U A65G A138U, the self-cleavage is 0.04.

Turning to U9A C18A U96C, the self-cleavage was 0.43.

For U45C A79G U104C, the self-cleavage came out at 0.

Consider G4U U20C U26A G35C U73A A124G, for which the self-cleavage was found to be 0.72.

In the case of U1C U47C U112A, the self-cleavage was 0.32.

U13C C63U A69G: the self-cleavage is 0.2.

Take C3U U62C U81A A121U: the self-cleavage was 0.06.

For the variant A24U A107G C128U, the self-cleavage was 1.56.

Regarding A77U G114A G126C, the self-cleavage is 2.1.

In the case of C19U U112A A140G, the self-cleavage stood at 1.31.

Turning to U9C U45C A141G, the self-cleavage was found to be 0.66.

On to A43G G72A U132C, for which the self-cleavage came out at 1.3.

As for A31G U73A A79U A121U A136C, the self-cleavage was found to be 1.83.

On to U13C A107U G144A, for which the self-cleavage was found to be 1.43.

As to U20C U62C U119C U132C, the self-cleavage amounted to 0.

For A22G G36C A65G A67G U91A, the self-cleavage came out at 0.

A107U A140C A142G: the self-cleavage was found to be 1.47.

For U1A A78U A79G A141G, the self-cleavage is 1.7.

Regarding A22U U29C U73C U132C, the self-cleavage came out at 0.77.

With U14C U26C A92U G127U, the self-cleavage is 1.

Consider A59U U81G U100C, for which the self-cleavage was 0.71.

With U45C C71U C76U A78G, the self-cleavage is 0.52.

As to U20A A67U C98U U102A, the self-cleavage was determined as 0.02.

With A42G U52A U62C G80A U115A U130C A138G, the self-cleavage worked out at 0.

Consider U13A U20C G36C, for which the self-cleavage was found to be 1.06.

For the variant U9C A65U A79G, the self-cleavage stood at 0.54.

For A2G U29C U104C, the self-cleavage is 0.

In the case of U39G A136U A140G, the self-cleavage came out at 0.32.

As for A50U U52A G126C, the self-cleavage is 1.37.

Regarding G44A U46C A67C, the self-cleavage amounted to 0.12.

For U12C U73A A79G, the self-cleavage was found to be 0.92.

For U20A C37U G54A, the self-cleavage is 0.21.

Turning to A2G U15A A136U, the self-cleavage worked out at 0.4.

In the case of A57G U81C A94U U130A, the self-cleavage was determined as 0.22.

As to U12G A78G U96A A129G, the self-cleavage stood at 0.

Regarding U46A C71U C84U U87C U102C U115C, the self-cleavage was 0.03.

Consider U9A U26G C116U A140U, for which the self-cleavage is 0.94.

U12C A94G U108C A129G: the self-cleavage worked out at 0.

Take U15A A50G U96A: the self-cleavage came out at 0.09.

For U9C U52C U112C G137U A141G, the self-cleavage is 1.23.

With G35U U87A A117C, the self-cleavage was 0.04.

Consider A57G U109C U115C, for which the self-cleavage came out at 0.

Consider A64G U87A G125A, for which the self-cleavage was 0.05.

As to U13C A94G U102C, the self-cleavage amounted to 0.31.

As for U39A A107G A141G, the self-cleavage stood at 1.69.

Turning to C71A A121U A129G, the self-cleavage is 0.22.

For U15C U104C G105A, the self-cleavage was found to be 2.21.

With U96C A107U A142G, the self-cleavage came out at 0.

With U29C A79U A140G, the self-cleavage came out at 1.99.

With U26A A50G A57U, the self-cleavage came to 0.1.

A77U U87C A129G: the self-cleavage worked out at 0.28.

For U12G G75A A124U, the self-cleavage worked out at 1.11.

As for A69G U87A C116U A136G U143C, the self-cleavage was 0.04.

Take G7U G127A C145U: the self-cleavage worked out at 1.74.

For the variant A43G U119C A141G, the self-cleavage is 1.61.

In the case of U47C A57U A64G, the self-cleavage stood at 0.

Take U12G U15C A30G A121C: the self-cleavage worked out at 0.

In the case of U13C C19U A142G, the self-cleavage turned out to be 1.12.

Consider U13A A67U U143C, for which the self-cleavage came out at 0.25.

For A42G G60U U143C, the self-cleavage is 0.04.

With U46C C84U U100C A140G, the self-cleavage stood at 0.26.

A22G A42G A50G: the self-cleavage was found to be 0.34.

Regarding U13C A65U C84U U87C, the self-cleavage was found to be 0.1.

For A22G G114C G135A, the self-cleavage came out at 0.9.

With U13A A57G A94G A140G, the self-cleavage turned out to be 0.

Regarding A2G A42G C56G A117G, the self-cleavage was found to be 0.19.

For U12G U45A A77G C99U A124G, the self-cleavage is 1.11.

As for U5G U12C U96C, the self-cleavage is 0.52.

For the variant U13C U39A A77C U143C, the self-cleavage was 1.48.

U1C G33A A124U C128U: the self-cleavage worked out at 0.13.

On to U52A A121G A124U A141G, for which the self-cleavage was 2.32.

For G48A U52G A65G G70A, the self-cleavage was 0.05.

On to A2U A57U A79G, for which the self-cleavage stood at 0.13.

On to A2U U102C U115A, for which the self-cleavage was determined as 0.51.

With G11A U52C U73C G74U, the self-cleavage turned out to be 2.51.

For U12C U112A A136G A141G, the self-cleavage was found to be 2.01.

With U12C U29C A43G A117G A129U, the self-cleavage is 0.

For the variant A6U U15A A43G, the self-cleavage is 0.57.

For U47A U81C U109G, the self-cleavage came out at 0.

With U39A A65G U119C, the self-cleavage was found to be 0.12.

U15C C63A A64G C66G U102C: the self-cleavage is 0.12.

On to U20G A42U U47A, for which the self-cleavage came to 0.6.
